Certain results were filed several times, with different values. They are shown here; other results are not. There may be further records. Some protein pairs were linked at several places, one record each.
Tests used:
Conditions in all cases: DSSO, in cells
MYBBP1A = MYBBP1A (UniProt Q9BQG0)
RPL23A = RPL23A (UniProt P62750)
MYH10 = MYH10 (UniProt P35580)
NCL = NCL (UniProt P19338)
RPL4 = RPL4 (UniProt P36578)
RPS6 = RPS6 (UniProt P62753)
NDUFA5 = NDUFA5 (UniProt Q16718)
NDUFA7 = NDUFA7 (UniProt O95182)
NOP16 = NOP16 (UniProt Q9Y3C1)
NOP58 = NOP58 (UniProt Q9Y2X3)
NPM1 = NPM1 (UniProt P06748)
NSMCE3 = NSMCE3 (UniProt Q96MG7)
NUCB1 = NUCB1 (UniProt Q02818)
NUP153 = NUP153 (UniProt P49790)
TIMM50 = TIMM50 (UniProt Q3ZCQ8)
UniProt Q3ZCQ8, sequence (Q3ZCQ8 whole entry): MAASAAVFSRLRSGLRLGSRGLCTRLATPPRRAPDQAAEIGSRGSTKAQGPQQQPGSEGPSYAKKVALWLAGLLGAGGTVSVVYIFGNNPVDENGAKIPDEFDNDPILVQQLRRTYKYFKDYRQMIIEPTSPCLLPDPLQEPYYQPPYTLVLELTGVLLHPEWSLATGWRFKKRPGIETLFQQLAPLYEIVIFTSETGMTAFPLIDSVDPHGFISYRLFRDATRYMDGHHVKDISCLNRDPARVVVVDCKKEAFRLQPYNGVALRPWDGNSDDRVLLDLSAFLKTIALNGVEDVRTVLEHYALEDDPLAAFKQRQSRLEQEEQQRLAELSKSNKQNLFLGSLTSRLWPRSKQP

TMPO = TMPO (UniProt P42167)
NUP205 = NUP205 (UniProt Q92621)
NUP85 = NUP85 (UniProt Q9BW27)
OCIAD1 = OCIAD1 (UniProt Q9NX40)
PDIA3 = PDIA3 (UniProt P30101)
PDIA6 = PDIA6 (UniProt Q15084)
PLEC = PLEC (UniProt Q15149)
PNN = PNN (UniProt Q9H307)
PRKDC = PRKDC (UniProt P78527)
XRCC5 = XRCC5 (UniProt P13010)
PRPF3 = PRPF3 (UniProt O43395)
PSMC2 = PSMC2 (UniProt P35998)
PSMD2 = PSMD2 (UniProt Q13200)
UniProt Q13200, sequence (Q13200 whole entry): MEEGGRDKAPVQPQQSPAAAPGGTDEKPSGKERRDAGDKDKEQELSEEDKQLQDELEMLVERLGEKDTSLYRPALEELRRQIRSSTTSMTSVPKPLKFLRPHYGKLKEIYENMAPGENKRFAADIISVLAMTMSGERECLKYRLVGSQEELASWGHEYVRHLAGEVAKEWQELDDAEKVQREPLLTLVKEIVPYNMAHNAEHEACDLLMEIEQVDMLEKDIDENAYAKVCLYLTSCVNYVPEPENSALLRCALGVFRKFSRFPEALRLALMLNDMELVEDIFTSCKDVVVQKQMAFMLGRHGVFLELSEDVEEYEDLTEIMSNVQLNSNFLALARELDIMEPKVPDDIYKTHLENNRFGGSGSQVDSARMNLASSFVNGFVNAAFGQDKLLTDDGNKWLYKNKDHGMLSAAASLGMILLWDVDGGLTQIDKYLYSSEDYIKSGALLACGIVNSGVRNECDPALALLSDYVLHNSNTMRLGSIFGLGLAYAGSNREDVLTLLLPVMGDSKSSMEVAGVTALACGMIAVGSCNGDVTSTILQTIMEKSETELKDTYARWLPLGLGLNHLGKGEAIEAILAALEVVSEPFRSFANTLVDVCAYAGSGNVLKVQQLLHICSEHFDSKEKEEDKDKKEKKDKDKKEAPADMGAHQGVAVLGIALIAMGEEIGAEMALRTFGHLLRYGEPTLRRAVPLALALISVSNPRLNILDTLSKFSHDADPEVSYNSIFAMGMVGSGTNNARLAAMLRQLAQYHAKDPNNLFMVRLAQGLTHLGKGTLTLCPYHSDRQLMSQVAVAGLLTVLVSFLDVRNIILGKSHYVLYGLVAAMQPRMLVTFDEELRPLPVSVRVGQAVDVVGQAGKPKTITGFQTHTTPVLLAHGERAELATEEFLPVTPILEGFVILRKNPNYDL

PSME2 = PSME2 (UniProt Q9UL46)
RNF20 = RNF20 (UniProt Q5VTR2)
RTRAF = RTRAF (UniProt Q9Y224)
S100A6 = S100A6 (UniProt P06703)
SERBP1 = SERBP1 (UniProt Q8NC51)
SF3A3 = SF3A3 (UniProt Q12874)
UniProt Q12874, sequence (Q12874 whole entry): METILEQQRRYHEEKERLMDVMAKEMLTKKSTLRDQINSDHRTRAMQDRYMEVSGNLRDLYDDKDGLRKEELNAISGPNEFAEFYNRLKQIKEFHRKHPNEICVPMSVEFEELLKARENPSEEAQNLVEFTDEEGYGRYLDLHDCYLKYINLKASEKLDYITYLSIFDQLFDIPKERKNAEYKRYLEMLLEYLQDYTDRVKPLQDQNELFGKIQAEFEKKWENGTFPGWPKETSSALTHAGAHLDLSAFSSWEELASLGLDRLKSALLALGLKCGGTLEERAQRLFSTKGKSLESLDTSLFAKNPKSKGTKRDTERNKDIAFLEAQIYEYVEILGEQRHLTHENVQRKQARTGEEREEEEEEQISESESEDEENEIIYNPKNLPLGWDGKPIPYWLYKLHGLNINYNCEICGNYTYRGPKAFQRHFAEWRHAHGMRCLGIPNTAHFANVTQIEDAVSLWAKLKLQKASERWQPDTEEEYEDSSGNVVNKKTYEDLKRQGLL

SLC7A11 = SLC7A11 (UniProt Q9UPY5)
SLC7A5 = SLC7A5 (UniProt Q01650)
SMC4 = SMC4 (UniProt Q9NTJ3)
SND1 = SND1 (UniProt Q7KZF4)
SNRPD3 = SNRPD3 (UniProt P62318)
SNU13 = SNU13 (UniProt P55769)
SPTAN1 = SPTAN1 (UniProt Q13813)
SRP68 = SRP68 (UniProt Q9UHB9)
SRP9 = SRP9 (UniProt P49458)
UniProt P49458, sequence (P49458 whole entry): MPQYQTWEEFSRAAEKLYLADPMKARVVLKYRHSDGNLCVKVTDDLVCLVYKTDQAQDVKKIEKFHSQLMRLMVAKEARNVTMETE

STX5 = STX5 (UniProt Q13190)
TASOR = TASOR (UniProt Q9UK61)
THOC2 = THOC2 (UniProt Q8NI27)
UTP11 = UTP11 (UniProt Q9Y3A2)
UniProt Q9Y3A2, sequence (Q9Y3A2 whole entry): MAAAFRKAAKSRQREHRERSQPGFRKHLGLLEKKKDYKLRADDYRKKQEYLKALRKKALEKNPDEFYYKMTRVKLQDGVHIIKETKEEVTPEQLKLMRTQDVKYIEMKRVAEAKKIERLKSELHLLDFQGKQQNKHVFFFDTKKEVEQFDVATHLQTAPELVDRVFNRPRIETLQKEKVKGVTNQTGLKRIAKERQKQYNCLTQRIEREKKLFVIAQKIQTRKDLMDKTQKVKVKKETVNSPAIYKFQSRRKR

UTP15 = UTP15 (UniProt Q8TED0)
YWHAB = YWHAB (UniProt P31946)
YWHAG = YWHAG (UniProt P61981)
YWHAE = YWHAE (UniProt P62258)

RNF40, sequence (O75150 whole entry): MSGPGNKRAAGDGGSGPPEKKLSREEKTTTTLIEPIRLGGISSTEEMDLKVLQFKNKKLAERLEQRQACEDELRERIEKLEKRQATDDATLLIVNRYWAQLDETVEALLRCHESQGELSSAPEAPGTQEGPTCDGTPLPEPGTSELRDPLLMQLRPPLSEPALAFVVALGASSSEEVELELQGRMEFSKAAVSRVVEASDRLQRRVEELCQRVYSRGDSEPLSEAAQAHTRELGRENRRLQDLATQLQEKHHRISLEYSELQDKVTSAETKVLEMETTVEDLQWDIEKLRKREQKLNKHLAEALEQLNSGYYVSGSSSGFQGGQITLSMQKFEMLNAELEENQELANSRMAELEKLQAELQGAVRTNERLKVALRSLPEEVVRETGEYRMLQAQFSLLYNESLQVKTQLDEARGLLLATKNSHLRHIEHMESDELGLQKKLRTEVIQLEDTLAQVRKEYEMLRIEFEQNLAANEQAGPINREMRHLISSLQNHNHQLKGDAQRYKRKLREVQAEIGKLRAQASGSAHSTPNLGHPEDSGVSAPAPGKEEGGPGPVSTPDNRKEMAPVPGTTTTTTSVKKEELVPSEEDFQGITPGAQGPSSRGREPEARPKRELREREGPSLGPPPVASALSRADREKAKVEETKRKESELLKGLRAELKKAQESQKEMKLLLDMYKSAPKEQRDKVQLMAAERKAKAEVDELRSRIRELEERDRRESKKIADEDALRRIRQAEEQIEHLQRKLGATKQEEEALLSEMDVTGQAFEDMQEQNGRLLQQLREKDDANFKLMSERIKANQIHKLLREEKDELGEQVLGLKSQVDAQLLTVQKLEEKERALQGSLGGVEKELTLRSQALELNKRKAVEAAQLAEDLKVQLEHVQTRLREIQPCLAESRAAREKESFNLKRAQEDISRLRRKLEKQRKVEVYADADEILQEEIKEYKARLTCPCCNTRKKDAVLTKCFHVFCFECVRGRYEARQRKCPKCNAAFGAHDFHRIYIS
MYH9, sequence (P35579 whole entry): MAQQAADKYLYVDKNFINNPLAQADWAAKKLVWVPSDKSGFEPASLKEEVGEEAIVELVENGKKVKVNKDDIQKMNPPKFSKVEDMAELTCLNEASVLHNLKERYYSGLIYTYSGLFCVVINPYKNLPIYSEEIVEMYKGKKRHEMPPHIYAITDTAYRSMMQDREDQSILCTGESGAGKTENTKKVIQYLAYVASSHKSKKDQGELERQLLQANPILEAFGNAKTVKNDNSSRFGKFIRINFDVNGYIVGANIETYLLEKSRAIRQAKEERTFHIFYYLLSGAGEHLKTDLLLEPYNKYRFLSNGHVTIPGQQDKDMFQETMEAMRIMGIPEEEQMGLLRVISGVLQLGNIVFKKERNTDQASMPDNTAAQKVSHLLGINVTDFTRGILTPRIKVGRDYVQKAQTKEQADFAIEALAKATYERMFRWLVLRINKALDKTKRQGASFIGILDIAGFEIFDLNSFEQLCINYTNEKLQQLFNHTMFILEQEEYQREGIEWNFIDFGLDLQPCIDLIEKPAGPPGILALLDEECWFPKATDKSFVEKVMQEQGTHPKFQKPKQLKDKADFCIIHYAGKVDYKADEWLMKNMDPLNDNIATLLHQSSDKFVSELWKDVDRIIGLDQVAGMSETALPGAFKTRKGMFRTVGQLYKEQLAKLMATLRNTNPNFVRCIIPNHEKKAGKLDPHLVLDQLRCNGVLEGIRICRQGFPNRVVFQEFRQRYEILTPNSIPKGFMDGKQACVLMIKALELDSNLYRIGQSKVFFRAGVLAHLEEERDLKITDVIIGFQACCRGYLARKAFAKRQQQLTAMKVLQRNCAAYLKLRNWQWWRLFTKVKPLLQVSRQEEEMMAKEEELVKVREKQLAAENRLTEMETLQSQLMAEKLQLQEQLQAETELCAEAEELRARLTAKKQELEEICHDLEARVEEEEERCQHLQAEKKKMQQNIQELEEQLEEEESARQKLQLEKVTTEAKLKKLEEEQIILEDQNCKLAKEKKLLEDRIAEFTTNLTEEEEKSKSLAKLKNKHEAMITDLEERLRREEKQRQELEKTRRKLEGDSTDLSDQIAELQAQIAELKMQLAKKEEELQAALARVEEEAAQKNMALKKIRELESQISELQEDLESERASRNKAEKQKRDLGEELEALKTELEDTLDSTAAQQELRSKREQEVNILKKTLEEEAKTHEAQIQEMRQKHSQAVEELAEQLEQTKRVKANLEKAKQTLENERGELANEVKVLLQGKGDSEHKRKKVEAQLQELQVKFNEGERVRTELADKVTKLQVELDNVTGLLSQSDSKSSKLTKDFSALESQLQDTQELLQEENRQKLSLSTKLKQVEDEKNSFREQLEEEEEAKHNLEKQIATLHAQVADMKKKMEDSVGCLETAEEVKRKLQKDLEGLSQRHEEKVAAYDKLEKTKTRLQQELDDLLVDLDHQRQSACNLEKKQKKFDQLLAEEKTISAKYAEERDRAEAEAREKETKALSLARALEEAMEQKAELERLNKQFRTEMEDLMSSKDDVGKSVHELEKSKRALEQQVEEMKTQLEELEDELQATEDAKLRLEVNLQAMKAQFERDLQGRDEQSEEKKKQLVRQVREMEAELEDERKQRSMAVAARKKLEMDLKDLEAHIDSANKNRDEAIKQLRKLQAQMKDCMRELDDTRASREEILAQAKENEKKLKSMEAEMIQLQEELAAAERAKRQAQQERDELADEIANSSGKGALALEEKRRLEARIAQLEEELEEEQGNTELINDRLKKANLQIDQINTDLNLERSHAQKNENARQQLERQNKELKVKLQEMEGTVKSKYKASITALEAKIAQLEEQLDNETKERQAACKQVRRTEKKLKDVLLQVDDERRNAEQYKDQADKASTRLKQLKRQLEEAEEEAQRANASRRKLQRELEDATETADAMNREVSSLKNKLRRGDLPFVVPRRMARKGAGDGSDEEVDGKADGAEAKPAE

Question: With SURF6, O75683 as the substance, how does the cross-linked residues (MYBBP1A) read?
Answer: K16 - K263 and K34 - K344

Question: What about the cross-linked residues (RPL23A) of the same substance?
Answer: K34 - K115 and K135 - K88

Question: With MYH9, P35579 as the substance, how does the cross-linked residues (MYH10) read?
Answer: K1775 - S1810 and K1775 - K1813 and K1802 - K1782

Question: Which results are given for NPM1, P06748?
Answer: cross-linked residues (NCL): S139 - K71 and S149 - K102; cross-linked residues (RPL4): K141 - K294 and S149 - K294 and S149 - K364; cross-linked residues (RPS6): K32 - K243 and K141 - K119 and K141 - K164 and K141 - K211 and K141 - K230

Question: Which cross-linked residues (NDUFA5) does the source give for NDUFA7, O95182 here?
Answer: K80 - K40 and K80 - K46 and K93 - K46

Question: For NDUFS3, O75489, which cross-linked residues (NDUFA7) is on record?
Answer: K56 - K80 and K56 - K93 and K259 - K80

Question: RPL13, P26373 was tested. Which cross-linked residues (NOP16) did it give?
Answer: K136 - K106 and K136 - K107

Question: With HEATR1, Q9H583 as the substance, how does the cross-linked residues (NOP58) read?
Answer: K84 - K422 and K1348 - K37

Question: Which cross-linked residues (NPM1) does the source give for RSL1D1, O76021 here?
Answer: K395 - K141 and K395 - K215 and K408 - K141

Question: How did the cross-linked residues (NSMCE3) turn out when NSMCE1, Q8WV22 was run?
Answer: K144 - K212 and K152 - K212

Question: How did the cross-linked residues (NUCB1) turn out when NUCB2, P80303 was run?
Answer: K364 - K364 and K370 - K364

Question: With TPR, P12270 as the substance, how does the cross-linked residues (NUP153) read?
Answer: K477 - K353 and K477 - K356

Question: With SDHA, P31040 as the substance, how does the cross-linked residues (TIMM50) read?
Answer: K167 - T46 and K335 - T46

Question: With LMNB1, P20700 as the substance, how does the cross-linked residues (TMPO) read?
Answer: K102 - K334 and K109 - K334 and K123 - K213 and K123 - K334 and K124 - K334 and K134 - K213 and K134 - K334 and K312 - T335

Question: With NUP54, Q7Z3B4 as the substance, how does the cross-linked residues (NUP205) read?
Answer: K363 - K892 and K371 - K892

Question: With NUP98, P52948 as the substance, how does the cross-linked residues (NUP85) read?
Answer: S1039 - K92 and S1039 - K540

Question: PHB2, Q99623 was tested. Which cross-linked residues (OCIAD1) did it give?
Answer: K89 - K131 and K89 - K195 and K262 - K195

Question: Which cross-linked residues (PDIA3) does the source give for CALR, P27797 here?
Answer: K43 - K425 and K55 - K494 and K153 - K82 and K153 - K94 and K153 - K104 and K153 - K226 and K153 - K494 and K360 - K494

Question: For CANX, P27824, which cross-linked residues (PDIA3) is on record?
Answer: K89 - K226 and K90 - K226

Question: For P4HB, P07237, which cross-linked residues (PDIA6) is on record?
Answer: K31 - K150 and K71 - K150

Question: How did the cross-linked residues (PLEC) turn out when VIM, P08670 was run?
Answer: K120 - K3887 and K168 - K4480 and K373 - K1815 and K445 - K3384

Question: How did the cross-linked residues (PNN) turn out when SAP18, O00422 was run?
Answer: K74 - K109 and T116 - K109

Question: Which cross-linked residues (PRKDC) does the source give for XRCC6, P12956 here?
Answer: K189 - K2350 and K189 - K2418 and K297 - K117 and K297 - K165 and T316 - K205 and K331 - K165

Question: What about the cross-linked residues (XRCC5) of the same substance?
Answer: K114 - S324 and K189 - K648 and K189 - K702 and K282 - S324 and K282 - K332 and K287 - K291 and K287 - K325 and T316 - K282 and K539 - K338 and K570 - K469 and T572 - K195 and K575 - K202 and K596 - K144

Question: Which cross-linked residues (PRPF3) does the source give for PRPF4, O43172 here?
Answer: K200 - K376 and K216 - K361

Question: With PSMC3, P17980 as the substance, how does the cross-linked residues (PSMC2) read?
Answer: K173 - K116 and K372 - K340

Question: How did the cross-linked residues (PSMD2) turn out when PSMC5, P62195 was run?
Answer: K162 - K41 and K222 - K41 and K330 - K39 and K330 - K41

Question: For PSME1, Q06323, which cross-linked residues (PSME2) is on record?
Answer: K35 - K15 and K45 - K15 and K70 - T80 and K91 - K180 and K187 - K177 and K187 - K180 and K190 - K177 and K190 - K180

Question: Which cross-linked residues (RNF20) does the source give for RNF40, O75150 here?
Answer: K355 - K57 and K860 - K836 and K862 - K834

Question: FAM98B, Q52LJ0 was tested. Which cross-linked residues (RTRAF) did it give?
Answer: K136 - K98 and K280 - K171

Question: For ALDH1A1, P00352, which cross-linked residues (S100A6) is on record?
Answer: K410 - K26 and K412 - K26

Question: With RPL34, P49207 as the substance, how does the cross-linked residues (SERBP1) read?
Answer: S113 - K68 and K115 - K52

Question: How did the cross-linked residues (SERBP1) turn out when RPS12, P25398 was run?
Answer: K116 - K281 and K116 - K294 and K116 - K299

Question: For SNRPA1, P09661, which cross-linked residues (SF3A3) is on record?
Answer: K56 - K64 and K172 - K64 and K179 - K69

Question: What does the source list for SLC3A2, P08195?
Answer: cross-linked residues (SLC7A11): K59 - K4 and K65 - K30 and K144 - K222 and K154 - K222 and K197 - K222; cross-linked residues (SLC7A5): K44 - K19 and K44 - K30 and K46 - K19 and K46 - K25 and K46 - K30 and K59 - K25 and S64 - K30 and K65 - K19 and K65 - K25

Question: With SMC2, O95347 as the substance, how does the cross-linked residues (SMC4) read?
Answer: K290 - K988 and K320 - K405 and K348 - K928 and K580 - K731 and K750 - K522 and K890 - K370 and K900 - K1009 and K911 - K1009 and K911 - K1017 and K930 - S1030 and K930 - K1031

Question: Which cross-linked residues (SND1) does the source give for RPS9, P46781 here?
Answer: K91 - K513 and K121 - K513 and K155 - K497

Question: For SNRPB2, P08579, which cross-linked residues (SNRPD3) is on record?
Answer: K93 - K78 and K93 - K84 and K101 - K84

Question: For NOP56, O00567, which cross-linked residues (SNU13) is on record?
Answer: K158 - K9 and K396 - K86 and K422 - K86

Question: SPTBN1, Q01082 was tested. Which cross-linked residues (SPTAN1) did it give?
Answer: K292 - K2404 and K659 - K1911 and K668 - S1948 and K668 - K1957 and K997 - K1646 and K1249 - K1369 and K1421 - K1138 and K1434 - K1141 and S1458 - K1131 and S1458 - K1132 and K1532 - K909 and K1622 - K864 and K1632 - K803 and K1632 - K864 and K1675 - K814 and K1675 - K969 and K1815 - K602 and K1824 - K613 and K1827 - K602 and K1827 - K613 and K2054 - K441

Question: For SRP72, O76094, which cross-linked residues (SRP68) is on record?
Answer: K536 - S415 and K600 - K107

Question: Which cross-linked residues (SRP9) does the source give for SRP14, P37108 here?
Answer: T45 - K24 and T45 - K76 and K55 - K76 and S73 - K76 and K74 - K76 and K78 - K76 and K95 - K60

Question: For SEC22B, O75396, which cross-linked residues (STX5) is on record?
Answer: K43 - K103 and K43 - K202

Question: Which cross-linked residues (TASOR) does the source give for MPHOSPH8, Q99549 here?
Answer: K623 - K507 and K626 - K507 and K847 - K507 and K847 - K586

Question: With THOC5, Q13769 as the substance, how does the cross-linked residues (THOC2) read?
Answer: K24 - K35 and K24 - K139

Question: SLC25A3, Q00325 was tested. Which cross-linked residues (TIMM50) did it give?
Answer: K101 - T46 and K209 - T46

Question: NOL7, Q9UMY1 was tested. Which cross-linked residues (UTP11) did it give?
Answer: K162 - K131 and K162 - K135 and K170 - K135

Question: Which cross-linked residues (UTP15) does the source give for WDR43, Q15061 here?
Answer: K430 - K74 and K430 - S501

Question: For YWHAQ, P27348, which cross-linked residues (YWHAB) is on record?
Answer: K68 - K13 and K85 - K11

Question: And the cross-linked residues (YWHAG)?
Answer: K9 - K77 and K74 - M1 and K74 - K10 and K85 - K10

Question: With YWHAB, P31946 as the substance, how does the cross-linked residues (YWHAE) read?
Answer: K13 - K69 and K13 - K78

Reference: article PMC13423814
